The full ranking holds about 4,500 sequences; the median of “median log2 fold change of GCK-ALFA target abundance (FLAG IP / Myc IP barcode read proportion)” is about 0.078, and the lowest 2% start at about -0.6. Some of the results follow.
B1: GBRAP_125_3005 (protein)
chain: DLEVVVEAIRRLLERAGEDESLIEEAARLAREHGGKQTLIAVAYALGDEELAELLERLSEEQVVEVARRLLAYLEAHPDATLEEVLAKWRELAEEALAAA
B2: GBRAP_117_2579 (protein)
chain: SEEKERVKERLRETIREAGKRIEAAKSLSPEERQKVLEEVRKEIAEAVREALKVLSREEVLDIVEETLLEFNAETYFEISSFVADAIEEIREEEEERRRR
B3: GBRAP_35_5601 (protein)
chain: ETDEFAAESLIDLIEALIEGVPEEDVETLAAIGNTLAKFAKELIEDLKNNKELLKKLAEALKKLIEALKKHHGDNPLMQELIKKFEELLKEAEKKIEEIE
B4: GBRAP_166_4982 (protein)
chain: SQEELVEELKKYIDEQAEKAKTANAEERQELVAEVAEKIAEAREEGLSDEDLRELIRYALEQFAKVGVPVSAVEGALSILADLDEEEIDILIEARDEVLA
B5: GBRAP_52_5955 (protein)
chain: MRERLRELVEELIELVKAGKLEEARELAREIAETLNDEELRLFAEEFARRAREASPEDWDAIFKAAEIVADELLEEGRDPALAGELLARVAAAIYEKEQA
B6: GBRAP_166_4962 (protein)
chain: KQEELVERLKKLIKEKAEKAKTATPEEKLELLAEVAEELGKAKEEGLSKESLRELIRHTLEEFSAVGLTLSQVEGALTILANLDEEEIDILEEAIKEVKA
B7: GBRAP_160_4578 (protein)
chain: SEKEKKAIEILNEATEEVLSLVDEVSLEELINFTEVEFGSAILELLDEGLISWETADKMMEIVDELVATLKANPNLTPEERKALIEEAKKKMEEAIKEEY
B8: GBRAP_74_6508 (protein)
chain: EEELLAALRAAAAAKDARAVAELLREIVKTGSLEAIEEAARIVVAFVDAHLDELSPEELEALADALAELADKLMELGGDSDVVRAVVAAAVRLEERLAAL
B9: GBRAP_128_3415 (protein)
chain: PDAALVARTRELLDAMLTADPETARALAEEIVALIMEADLETAEAIGEVILARLPQLTAEQLEILADAIRAALPAATPEKAEILADVLVEALNEAEEKEE
B10: GBRAP_14_3854 (protein)
chain: MEKLIAAVKKTAEAAIEFAKELLPEHAEEVGKKIKELAEKIIEKIKKENLNKEEVAELIRKMAEELGKFIKEKGYASDEEIAAFKAFIENEALLELEKVE
B11: GBRAP_160_4110 (protein)
chain: SEAAKKLIEDLKEEAEEVLSLAPEVSNEEFVNDFEVEFGSVILDAMEELGISMETADELLEIVDKAAEELRKAGDAPLEEKEKIVEEAIEEMKKVVEKHA
B12: GBRAP_78_6725 (protein)
chain: ELEELIDKAIEELNKAAREAQKLPEEAANEILGLLVDAMSDLVEAEENGGDLEELERAKKYVEEALKLAEKLKSKEAEPLIKELKKALELLEKAIKLKKE
B13: GBRAP_128_3410 (protein)
chain: SMEEKVEEAKELLEKMLTADEEERRKLARELAELLLESDLETVEKIVEVILEMLPKFTAEQLEILADELEKRLDEFSPEKQELVSEVIVEALNEAEELEE
B14: GBRAP_11_2838 (protein)
chain: KKEELKELAERAEELARELERLIASGAPTEEELRELLERAKEFLKEVKKSGDKSAAKVAEIAVEEIEEAIANPETQQQHLENALAAFRVLEGLYLLELEE
B15: GBRAP_80_6857 (protein)
chain: AEAELEKALAELEKLLPEVAEDAKEIVKLAREMGVPDEEIAELMKALAELAKVDPEKAAKLIKELLEDLKELKEEGDSERALAVIRGYAGEALMEAEELE
B16: GBRAP_150_3898 (protein)
chain: SLELALLLAETALDLVEGILDGEYSLLPHAIKLLKKLVEELKEIDKELAEKAKKALELVEEAKKLIEEGGDPEEVQKLLEEALKILKELVKEIKKKIEEE
B17: GBRAP_125_3026 (protein)
chain: SEEELVEDLGRIAAALGFSEGDVEELMREARRHGIKGAFIALALAEGLEEAAELAEKLSEEEVKEVVREVAAWLEAHPDATPEEVKEKILEVLKKAVAKS
B18: GBRAP_160_4755 (protein)
chain: KEELKKLKKEIKEIFEEYKEILKEVPKEEAPTVIRGAAGEVLMEVMSSDAASDELEEEIGKILDEAVKEAEANKDKPVEYHIEILEKAEKEILELIEKEI
B19: GBRAP_26_5423 (protein)
chain: LEEAVRAALDRLGAVLDALLDPETAAAARAEATDLLLEMDEKVEEEDLSEEEVEALAAEVLEEFAEALDELGVPADARARLVAALQEELDRLIAAWKASR
B20: GBRAP_160_4154 (protein)
chain: SAEIKKLIEEIKKIAEEAIKMMEGETPEEAKTIAKVALGEMLLLVEENPAVSEETEEKIGKIVDETEAKLDANPDLTVEEVKELLKEAEKKIVEILEKEA
B21: GBRAP_78_6614 (protein)
chain: EKKEKIEELLEKAAELLREVIKKSPELANEAADALVLVGTAIYMVTTGSESKEELEETVKEAAKELEELLKKAKDAKEEVQEKVKKALELVKEALKLLKE
B22: GBRAP_80_6799 (protein)
chain: AEAALAAALAALAEIDPEIAERVARIVERARALGVSDADLADLVAAIAKLAKADKERARELVEELEEDLAEEEEEGDTARAAAVVRVHAGNALLEVEELE
B23: GBRAP_137_3676 (protein)
chain: SKVEIEIKEEDGLVEITVTVYDPEKAEETEEKLLDIAHEVGALAVAIKRNEDGSLEITIVVPEEKGEEAEKKVLELAKEYDEVIIKKEKDGKTEEEVIKK
B24: GBRAP_52_6291 (protein)
chain: SEEEVEKLVEEIVKLIKAGKLEEAIKLAKEAAKELSLEEVLLLGEKLIERIKELPEKDLDKAWEVIEALAEEIEKIFGAEEEADYLEARAAAAIYERLQK
B25: GBRAP_52_6047 (protein)
chain: SEEEIRRLAREAYEAMLAGDEERARALLREIFATKDEEKLEVFLETMVELAREARPEEHDAVARLVELAEEVGREAGIPEEFLDDFEARVFAAMYEAEQR
B26: GBRAP_35_5575 (protein)
chain: DTDETIVEMLLSTIEDLTLAVPDMPLETVVAAANALVRSVRELAEELKNDPEALKRLREAVQALLDAIRRHHADDPAAQAAAAALEDTAKYLEELAKKAE
B27: GBRAP_139_3749 (protein)
chain: MSTEEVIAQARELVRRLDEDPEAAIEALAELLSSLDDEKREAAARAIAEELLSKPYDEAEAFLEALAKRLREEYGDEDGAEIVEAEANRTLAEIAVREEA
B28: GBRAP_11_2925 (protein)
chain: KKEKLKEIAELAEELAELIEKLIKEGVDNEELIKEAEEKLKELKELVEKYSDEAEKKLAEIAEELFEEAKKDKENQLKYWQEMLATVRVLSGQFLLKLEE
B29: GBRAP_160_4273 (protein)
chain: SEKLKELIKELEESEKEILELVDEESPEEVKAFAVTELGSILLEAIELGVVSDEAEDKLAEIIDELEEELDEAKNASPEEIKKIIKEHYEKAKKILEEES

These binders were tested against GABARAP, O95166 (assay: median log2 fold change of GCK-ALFA target abundance (FLAG IP / Myc IP barcode read proportion) (log2 ratio); each designed protein is fused to an ALFA-tag nanobody in HEK293 cells to bring the named protein to FLAG-tagged glucokinase (GCK); Myc marks an untargeted standard; higher = target protein stabilised (more abundant)). Details: target protein: 3xFLAG-MCP-GCK-ALFA reporter; HEK293 landing pad (RPLP).
Chain of GABARAP, O95166 (O95166 whole entry, the tested form may be a part): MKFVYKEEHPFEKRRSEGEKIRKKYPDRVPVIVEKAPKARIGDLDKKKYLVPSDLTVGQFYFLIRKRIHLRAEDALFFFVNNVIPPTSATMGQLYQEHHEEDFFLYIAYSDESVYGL
Method: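 LABEL-seq trans screen in HEK293 landing-pad cells. Each de novo designed 100-aa effector handle, binding the indicated effector (E3 ligase, DUB or autophagy protein), is fused to a constant NbALFA target handle and induced with 2 ug/mL doxycycline. A FLAG-MCP-GCK-ALFA target and a Myc-MCP standard reporter were transfected, and after 48 h circRNA barcodes were recovered by anti-FLAG and anti-Myc IP and sequenced. The value is the median across barcodes (at least 3 per design) of log2(FLAG/Myc read-proportion ratio), with the two transfection replicates pooled. Negative values mean degradation and positive values mean stabilisation of the target.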

| Binder | median log2 fold change |
| --- | --- |
| B1 | -0.325 |
| B2 | 0.0969 |
| B3 | -0.269 |
| B4 | 0.0312 |
| B5 | -0.0212 |
| B6 | 0.0899 |
| B7 | -0.487 |
| B8 | 0.0957 |
| B9 | 0.132 |
| B10 | 0.381 |
| B11 | -0.205 |
| B12 | 0.105 |
| B13 | 0.163 |
| B14 | -0.117 |
| B15 | 0.252 |
| B16 | 0.359 |
| B17 | 0.0798 |
| B18 | -0.0479 |
| B19 | -0.0377 |
| B20 | 0.135 |
| B21 | 0.25 |
| B22 | 0.027 |
| B23 | 0.249 |
| B24 | 0.0615 |
| B25 | 0.204 |
| B26 | 0.13 |
| B27 | 0.333 |
| B28 | 0.266 |
| B29 | -0.108 |

— the supplement of paper PMC12632987
